Values joined by “and” are separate entries in the source; they are usually repeats but may differ in a detail not shown here. Identical values can stand only once. In all, about 280,000 compounds went through this assay and about 1,100 (0.39%) were called active. Inconclusive results, whose numbers are uncertain, are shown with a selection of clear calls. The call rests on the fitted dose curve; in most records, active means well fitted inhibition curve with a large enough effect; inconclusive means small, poorly fitted or top-dose-only effect, or effect the other way; inactive means flat fitted curve, though single readings scatter. Where the call is inconclusive, the potency comes from a doubtful curve fit.
Molecular target: Microtubule-associated protein tau (Homo sapiens) (UniProt P10636)
Experiment: qHTS for Inhibitors of Tau Fibril Formation, Fluorescence Polarization; further: nearly all actives have a fitted effect of over 55% in size
Settings: K18 P301L tau heparin fibrillization, Alexa594 FP, 6 h; series mostly up to 57.7 µM; activity, negative = inhibition: at the top concentration
Outline: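 Human K18 P301L fragment (15 uM unlabeled plus 0.24 uM Alexa 594-labeled) in 100 mM sodium acetate pH 7 with compound, aggregation induced by 20 uM heparin for 6 hr at 37 C. ThT (30 uM) added for 1 hr, then Alexa 594 FP read.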
On the % scale 0 is the no-effect control and ±100 the full control effect; potency means the concentration at half of the fitted maximal effect; tags describe the fitted curve by direction and shape.

Chain of UniProt P10636 (P10636 whole entry, looked up): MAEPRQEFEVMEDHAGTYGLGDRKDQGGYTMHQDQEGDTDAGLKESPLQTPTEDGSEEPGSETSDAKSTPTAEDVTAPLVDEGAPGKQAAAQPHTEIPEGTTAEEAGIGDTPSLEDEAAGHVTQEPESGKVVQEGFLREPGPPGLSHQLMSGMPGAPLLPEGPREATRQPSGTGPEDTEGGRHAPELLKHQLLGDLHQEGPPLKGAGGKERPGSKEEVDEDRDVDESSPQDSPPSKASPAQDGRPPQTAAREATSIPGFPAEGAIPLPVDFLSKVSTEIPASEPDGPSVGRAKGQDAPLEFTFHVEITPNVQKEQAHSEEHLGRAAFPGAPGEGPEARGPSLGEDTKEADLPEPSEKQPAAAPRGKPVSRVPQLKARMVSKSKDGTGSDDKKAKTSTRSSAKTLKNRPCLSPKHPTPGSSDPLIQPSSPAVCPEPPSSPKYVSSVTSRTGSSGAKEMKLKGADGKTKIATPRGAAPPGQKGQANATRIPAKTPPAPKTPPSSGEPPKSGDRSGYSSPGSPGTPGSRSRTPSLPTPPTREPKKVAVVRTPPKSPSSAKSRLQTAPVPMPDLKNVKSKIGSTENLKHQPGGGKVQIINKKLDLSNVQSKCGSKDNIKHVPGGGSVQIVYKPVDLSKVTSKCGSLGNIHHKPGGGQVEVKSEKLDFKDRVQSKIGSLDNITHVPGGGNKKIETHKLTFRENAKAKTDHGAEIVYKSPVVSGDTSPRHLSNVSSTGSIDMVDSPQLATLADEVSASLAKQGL

| Compound | Potency | activity, negative = inhibition |
| --- | --- | --- |
| CC(C)CC(=O)NCC(c1ccc2c(c1)OCO2)N1CCN(c2ccc(F)cc2)CC1 (stereo unspecified) | inconclusive: 39.8 µM [activator, single point] |  |
| CC(C)(C)c1ccc(S(=O)(=O)c2cnc(SCC(=O)Nc3ccc4c(c3)OCCO4)[nH]c2=O)cc1 |  | inactive: 0.475% |
| CC1=CCC2C(=O)N(CCc3c[nH]c4ccccc34)C(=O)C2C1 (stereo unspecified) |  | inactive: 3.57% |
| Cc1ccc(Cl)cc1NC(=O)c1nnn(Cc2ccccc2)c1N | inconclusive: 11.2 µM [inhibitor, partial curve] |  |
| O=C(CSc1nnc(Nc2ccccc2F)s1)NCc1ccco1 | inconclusive: 4.47 µM [inhibitor, single point] |  |
| Cc1ccc(-c2nnc(Nc3ccc4c(c3)OCO4)c3ccccc23)cc1S(=O)(=O)NCCO | inconclusive: 0.251 µM [activator, partial curve] |  |
| Cc1ccc(NCc2cc3cc4c(cc3n(CC(=O)Nc3ccc(F)cc3F)c2=O)OCCO4)cc1 | inconclusive: 11.2 µM [activator, partial curve] |  |
| COC(=O)c1ccccc1N/C=C/C(=O)c1ccc(Br)cc1 | inconclusive: 3.16 µM [inhibitor, single point] |  |
| Cc1ccc(Nc2nc(CSc3nnc(-c4ccccc4C)n3C)cs2)cc1 |  | inactive: 7.31% |
| O=C(Nc1ccc(C(F)(F)F)cc1)c1cc(S(=O)(=O)N2CCCc3ccccc32)ccc1F | inconclusive: 15.8 µM [inhibitor, partial curve] |  |
| Cc1ccc(CN2c3ccccc3-c3nc(SCC(=O)NCCc4ccccc4)ncc3S2(=O)=O)cc1 | inconclusive: 11.2 µM [inhibitor, partial curve, poor fit] |  |
| CCOC(=O)c1cccc(NC(=O)CSc2cc(=O)n(C)c3ccccc23)c1 | inconclusive: 11.2 µM [inhibitor, partial curve] |  |
| O=C(CN1CCN(Cc2ccccc2)CC1)N/N=C/C=C/c1ccco1 | inconclusive: 39.8 µM [inhibitor, single point] |  |
| CC(=O)Nc1ccc(SCC(=O)Nc2ccccc2Oc2ccccc2)cc1 | inconclusive: 0.0251 µM [inhibitor, full curve, poor fit] |  |
| CN(CC(=O)OCC(=O)c1c(N)n(C)c(=O)n(C)c1=O)S(=O)(=O)c1ccc(Cl)cc1 | inconclusive: 0.1 µM [inhibitor, full curve, poor fit] |  |
| COc1ccc(Br)cc1/C=C/C(=O)Nc1ccc2ccccc2c1 | inconclusive: 39.8 µM [inhibitor, single point] |  |
| Cc1ccc2nc(-c3cccc(NC(=O)CSc4ccc(Cl)cc4)c3)oc2c1 | inconclusive: 12.6 µM [inhibitor, partial curve] |  |
| COc1ccc(Nc2ncc3c(n2)CCN(Cc2cccc(F)c2F)C3)c(OC)c1 | inconclusive: 15.8 µM [activator, partial curve] |  |
| CCC(=O)Nc1cccc(NC(=O)CN2CCN(c3ccccc3OC)CC2)c1 | inconclusive: 2.51 µM [inhibitor, single point] |  |
| COc1ccccc1C(=O)NNC(=O)c1ccc(NC(=O)C(C)C)cc1 |  | inactive: -2.8% |
| Cc1ccc(NC(=O)Cn2c(=O)n(-c3ccccc3)c(=O)c3ccc(C(=O)NCc4ccc5c(c4)OCO5)cc32)cc1 | inconclusive: 12.6 µM [inhibitor, partial curve] |  |
| CN1CCc2c(sc3c2c(=O)n(-c2ccccc2)c2nnc(SCc4ccccc4)n32)C1 |  | inactive: -6.52% |

| Compound | Potency | activity, negative = inhibition |
| --- | --- | --- |
| COCCCNC(=O)/C(C#N)=C1\N=C(NC(=O)c2cccs2)c2ccccc21 | inconclusive: 8.91 µM [activator, partial curve] |  |
| Cc1nc(-c2noc(-c3ccccc3Cl)n2)c(C(F)(F)F)o1 | inconclusive: 17.8 µM [inhibitor, partial curve] |  |
| Cc1ccc(C)c(NC(=O)c2cc(S(=O)(=O)N3CCN(c4cccc(Cl)c4)CC3)ccc2F)c1 |  | inactive: -16.8% |
| Cc1cc(C)cc(NS(=O)(=O)c2c(C)nc3scc(C)n3c2=O)c1 |  | inactive: -9.96% |
| Cc1ccc(CNc2nc(N)c([N+](=O)[O-])c(Nc3cccc(F)c3)n2)cc1 | inconclusive: 10 µM [inhibitor, partial curve, poor fit] |  |
| CCOc1ccccc1NC(=O)Cn1c(=O)n(-c2ccc(C)c(C)c2)c(=O)c2oc3ccccc3c21 |  | inactive: -2.83% |
| C/C(CC1CC(C)(C)OC1=O)=N/Nc1nc(-c2ccccc2)cs1 (stereo unspecified) | inconclusive: 35.5 µM [inhibitor, partial curve] |  |
| COC(=O)c1ccc(NC(=S)NCCc2ccccc2)cc1 | inconclusive: 39.8 µM [inhibitor, single point] |  |
| CN(C)c1nc(NCc2ccccc2)nc(N/N=C/c2cccc(Br)c2)n1 | inconclusive: 15.8 µM [inhibitor, partial curve] |  |
| N#CC1=C(N)C(C#N)(C#N)[C@H](c2c(F)cccc2F)[C@H]2CC3(CC=C12)OCCO3 | inconclusive: 25.1 µM [inhibitor, single point] |  |
| c1ccc(-c2nc(NCc3cccnc3)c3oc4ccccc4c3n2)cc1 | inconclusive: 15.8 µM [inhibitor, partial curve] |  |
| CCOc1cc(S(=O)(=O)NCCc2c(C)[nH]c3ccc(C)cc23)ccc1F | inconclusive: 39.8 µM [activator, partial curve] |  |
| COc1ccc2c(c1)c(CC(=O)Nc1cc(C)cc(C)c1)c(C)n2C(=O)c1ccc(Cl)cc1 | inconclusive: 8.91 µM [inhibitor, partial curve, poor fit] |  |
| Cc1nnc(N/N=C/c2ccccc2O)n1N | inconclusive: 25.1 µM [inhibitor, single point] |  |
| O=C1NC2=C(C(=O)c3ccccc32)C(c2ccccc2)N1 (stereo unspecified) | inconclusive: 25.1 µM [inhibitor, partial curve] |  |
| O=C(NCc1cccnc1)/C(=C/c1ccc(-c2ccc(Cl)cc2)o1)S(=O)(=O)c1ccccc1 | inconclusive: 11.2 µM [activator, partial curve] |  |
| C=CC[n+]1c(-c2ccc(Cl)cc2Cl)csc1Nc1ccc(NC(C)=O)cc1 | inconclusive: 3.55 µM [activator, full curve, poor fit] |  |
| CCOc1ccc(C2CC(c3cccc(Cl)c3)n3nc(N)nc3N2)cc1 (stereo unspecified) | inconclusive: 28.2 µM [activator, single point] |  |
| Cc1ccc(-c2noc(-c3cccnc3NCc3ccco3)n2)cc1 | inconclusive: 12.6 µM [inhibitor, partial curve, poor fit] |  |
| N#CC1(Cc2ccc(Cl)cc2)c2ccccc2C=CN1C(=O)c1ccccc1 (stereo unspecified) |  | inactive: -12.8% |
| Cc1cc2cc(CNC(=S)NC3CCCCC3)ccc2n1C | inconclusive: 0.891 µM [activator, partial curve] |  |
| Cc1ccc(OC(=O)COc2ccccc2C)c(-n2nc3ccccc3n2)c1 |  | inactive: -11.7% |

| Compound | Potency | activity, negative = inhibition |
| --- | --- | --- |
| Clc1cccc(Nc2nnc(-c3ccccc3)c3ccccc23)c1 | inconclusive: 20 µM [inhibitor, single point] and inconclusive: 3.55 µM [inhibitor, full curve] |  |
| Cc1ccc(S(=O)(=O)C2(C(=O)N3CCCCC3C)CC2)cc1 (stereo unspecified) |  | inactive: -0.813% |
| FC(F)(F)c1nc2cc3nc4ccccc4[nH]c3cc2n1 | inconclusive: 12.6 µM [inhibitor, partial curve] |  |
| O=C(NCCc1ccc(O)cc1)c1ccc(Cl)cc1 | inconclusive: 15.8 µM [inhibitor, single point] |  |
| O=C(CN1CCN(S(=O)(=O)c2ccc(Cl)cc2)CC1)Nc1ccc2c(c1)OCO2 |  | inactive: 1.27% |
| Cc1ccc(Sc2ccc(N3CCCC(C(=O)Nc4ccc(F)cc4)C3)nn2)cc1 (stereo unspecified) |  | inactive: -3.11% |
| Cc1nn(-c2ccc(N3CCCCC3)nn2)c(C)c1CCC(=O)NCc1ccccc1 |  | inactive: -2.09% |
| O=C(CCCSc1nc(-c2ccco2)cc(C(F)(F)F)n1)NCC1CCCO1 (stereo unspecified) |  | inactive: 1.66% |
| COc1ccc2nc(SCC(O)c3cccc(Br)c3)[nH]c2c1 (stereo unspecified) |  | inactive: 10.8% |
| O=C(COc1ccccc1Cl)NC(=S)Nc1cccc(NC(=O)c2ccccc2Cl)c1 | inconclusive: 35.5 µM [inhibitor, partial curve, poor fit] |  |
| Cn1sc(=O)c2cc(S(=O)(=O)NC3CC3)ccc21 | active: 28.2 µM |  |
| Cc1ccc(-n2nc(CO)c(C(=O)NCCC(C)C)n2)cc1C |  | inactive: -3.83% |
| O=c1[nH]c(N/N=C\c2ccc3c(c2)OCO3)nc2ccccc12 |  | inactive: 6.8% |
| CNC(=S)N1CCN=C1Nc1nc(C)cc(C)n1 |  | inactive: 2.02% |
| CCOC(=O)c1ccc(NC(=S)NCCc2ccccc2F)cc1 | active: 28.2 µM |  |
| Cc1ccc(N2C(=O)C(CC(=O)Nc3cccc(F)c3)N(CCc3ccccc3F)C2=O)cc1 (stereo unspecified) | inconclusive: 17.8 µM [inhibitor, partial curve, poor fit] |  |
| CCOc1ccc(Nc2cc(=O)oc3ccccc23)cc1 |  | inactive: -1.63% |
| COc1ccc(Nc2c(-c3ccc(OC)cc3)nc3cnccn23)cc1 | inconclusive: 25.1 µM [activator, single point] |  |
| Nc1nc(-c2ccccc2)c(N=Nc2ccc(Cl)cc2)s1 | inconclusive: 22.4 µM [activator, partial curve, poor fit] |  |
| COc1ccc(Cl)cc1N/C(N)=N/c1nc(CSc2ccc(C)cc2)cc(=O)[nH]1 | inconclusive: 0.0251 µM [inhibitor, full curve, poor fit] |  |
| Cc1ccc(Nc2c3c(nc4nncn24)CCC3)c(C)c1 | inconclusive: 2 µM [activator, single point] |  |
| COc1ccc2c(c1)-c1nc(NC(=O)c3cccc(Br)c3)sc1CC2 | inconclusive: 11.2 µM [inhibitor, partial curve, poor fit] |  |

From PubChem BioAssay AID1468 (National Center for Advancing Translational Sciences (NCATS), 2008)
